According to PubChem BioAssay AID463173 (ICCB-Longwood Screening Facility, Harvard Medical School, 2010):
About 1,700 (3.3%) of roughly 52,000 compounds were called active. No stated cut-off is given here; in the data, active means survival mostly below about 52% (no sharp cut-off); inactive means mostly above about 56%. This is one part of the list.

System: Wild type
Experiment: growth inhibition of S. aureus wild type versus tarO mutant, primary screen, teichoic acid synthesis inhibitors, RN4220, OD600 (AID 463173)
Conditions: S. aureus RN4220 wild type/DeltatarO growth, OD600, 18 h, stronger effect = lower value, screened at 18.75 µg/mL (by protocol)

| Compound | survival |
| --- | --- |
| CCOc1ccccc1NC(=O)c1ccc2c(c1)CCCN2S(C)(=O)=O | inactive: 84% |
| COCCNc1cc(N2CCN(C3CCCCC3)CC2)c2noc3c2c1C(=O)c1ccccc1-3 | inactive: 76% |
| COc1cccc(C(=O)N2CCC(c3nc4ccccc4s3)CC2)c1 | inactive: 97% |
| O=C(Nc1ccc2nn(-c3ccc(F)cc3)nc2c1)c1cccc2c(Cl)cccc12 | inactive: 139% |
| Cc1ccc(C(=O)Nc2nnc(SCc3cc(=O)c4c(C)ccc(C)c4[nH]3)s2)cc1 | inactive: 93% |
| O=C(C1COc2ccccc2O1)N(Cc1cccnc1)c1nc2c(F)cc(F)cc2s1 (stereo not drawn) | inactive: 67% |
| O=C(NC1CCCC1)C(c1ccccc1)N(CC1CCCO1)C(=O)Cn1nnc2ccccc21 (stereo not drawn) | inactive: 110% |
| Cc1ccc(Cl)cc1N1CCN(C(=O)c2c(C)oc3ncnc(N4CCOCC4)c23)CC1 | inactive: 69% |
| COc1cccc(C(=O)N2CCC(N3CCN(Cc4ccc(F)cc4)C(=O)C3=O)CC2)c1 | inactive: 72% |
| COC(=O)CSc1nnc(COc2ccc(C(C)C)cc2)o1 | inactive: 110% |
| CCOc1ccccc1NC(=O)c1c(NCc2ccc(OC)c(OC)c2OC)sc2c1CCC(C)C2 (stereo not drawn) | inactive: 153% |
| CCc1nnc(SCc2nc(-c3ccccc3F)oc2C)c2cc3sccc3n12 | inactive: 65% |
| COC(=O)c1cccc(Nc2c(-c3cc(Br)ccc3O)nc3nc[nH]n23)c1 | inactive: 88% |
| Cc1ccc(OCC(=O)Nc2cccc(C(=O)OCc3cc(=O)n4cc(C)sc4n3)c2)cc1 | inactive: 87% |
| Cc1cccc(-c2noc(-c3ccc(NC4CCCC4)c([N+](=O)[O-])c3)n2)c1 | inactive: 82% |
| COc1cc(OC)c(NC(=O)c2nc(-c3ccncc3)no2)cc1Cl | inactive: 119% |
| COc1ccc(NC(=O)CSc2nnc(-c3nnn(-c4ccc(F)cc4)c3C)o2)cc1 | inactive: 75% |
| CCCCCNC(=O)C1CCC(Cn2c(=O)c3sccc3n(CC(=O)N3CCCC3)c2=O)CC1 (stereo not drawn) | inactive: 91% |
| O=C(CC1N=C2c3ccccc3N=C(SCc3cccc(Cl)c3)N2C1=O)NC1CCCCC1 (stereo not drawn) | inactive: 77% |
| CCOCN(C(=O)Cn1c(C)nc2ccccc21)c1c(C)cccc1CC | inactive: 124% |
| COc1ccc(OCc2nnc(SCC(=O)O)n2N)cc1 | inactive: 105% |
| Cc1cc2n(n1)CCCN2C(=O)Nc1ccccc1F | inactive: 93% |

| Compound | survival |
| --- | --- |
| Cc1ccc(Cl)cc1-n1c(=O)cc(N2CCN(c3ccccc3)CC2)[nH]c1=O | inactive: 90% |
| CCc1ccccc1NC(=O)CC(C)n1nc(C)cc1C (stereo not drawn) | inactive: 80% |
| CCOC(=O)c1c(S(=O)(=O)N2CCN(c3ccccc3OC)CC2)c(C)n(C)c1C | inactive: 113% |
| COCCNC(=O)CN1CCC(NC(=O)c2ccco2)CC1 | inactive: 93% |
| Cc1ccc(N2C(=O)c3n[nH]c(C)c3C2c2ccc(C(C)C)cc2)cc1 (stereo not drawn) | inactive: 31% |
| COc1cccc(C(=O)Nc2ccccc2-c2nc(-c3ccc(C)cc3)no2)c1 | inactive: 47% |
| OC1CCN(C(=S)Nc2ccccc2)CC1 | inactive: 108% |
| c1ccc(N2CCN(c3ncnc4[nH]ncc34)CC2)cc1 | inactive: 73% |
| CC(=O)c1cccc(NC(=O)c2sc3nc4c(cc3c2N)CCCC4)c1 | inactive: 82% |
| COc1cc(OC)c(NC(=O)NCc2ccc3c(c2)CCN3C(C)=O)cc1Cl | inactive: 146% |
| O=C1CC(CSc2nnc(-c3ccc(Cl)cc3)n2-c2ccccc2)=NN1 | inactive: 109% |
| O=c1c2cc3c(cc2n(Cc2cccc(F)c2)c(=O)n1Cc1nc(-c2ccccc2)no1)OCO3 | inactive: 66% |
| CCc1ccc(NCc2cc3ccc(OC)cc3n(CC(=O)Nc3cccc(Cl)c3C)c2=O)cc1 | inactive: 88% |
| COCCN1C(=O)c2[nH]nc(-c3c(C)cc(C)cc3O)c2C1c1cccc(O)c1 (stereo not drawn) | inactive: 76% |
| COc1ccc(S(=O)(=O)N(CCc2ccccc2)CC(=O)NCc2ccccc2)cc1OC | inactive: 79% |
| CCC(C(=O)OC(C)C)n1cnc2sc3c(c2c1=O)CCC(C)C3 (stereo not drawn) | inactive: 71% |
| Cc1ccc(Cl)cc1NC(=O)c1cccc(NC(=O)N2CCSc3ncccc32)c1 | inactive: 111% |
| CCOc1ccc(NC(=O)C2CCCN(c3nnc(-n4c(C)ccc4C)s3)C2)cc1 (stereo not drawn) | inactive: 83% |
| CCc1ccccc1N1C(=O)N(Cc2cccc(Cl)c2)c2ccccc2S1(=O)=O | inactive: 84% |
| Cn1c(C(C(=O)NCC2CCCO2)N(Cc2ccc(F)cc2)C(=O)Cn2nnc3ccccc32)nc2ccccc21 (stereo not drawn) | inactive: 113% |
| CCCNS(=O)(=O)c1cc(-c2nnc3c4ccccc4c(C)nn23)ccc1OC | inactive: 83% |
| CC(C)(C)OC(=O)N1CCC(c2c(C(=O)N3CCN(C(=O)c4ccco4)CC3)cnn2-c2ccc(Cl)cc2)CC1 | inactive: 92% |

| Compound | survival |
| --- | --- |
| Cc1c(NC(=O)CN2C(=O)c3cccc4cccc2c34)c(=O)n(-c2ccccc2)n1C | inactive: 104% |
| CC(C)Cn1c(N2CCN(C(=O)Nc3ccc(Cl)cc3)CC2)nc2ccccc21 | inactive: 99% |
| Cc1cccn2c(=O)c(C(=O)NCCc3ccc(Cl)cc3)cnc12 | inactive: 77% |
| CC(=O)c1ccc(NC(=O)C2CCC(CNS(=O)(=O)c3cccc4nsnc34)CC2)cc1 (stereo not drawn) | inactive: 127% |
| Cc1ccc(C(=O)NCc2nnnn2-c2ccc(C)c(C)c2)cc1 | inactive: 82% |
| CCOC(=O)c1ccc(NC(=O)CSc2nnc(CNc3ccc(C)cc3C)n2Cc2ccco2)cc1 | inactive: 123% |
| Cc1ccc(-c2nnc(Nc3ccc(Br)cc3)c3ccccc23)cc1S(=O)(=O)NCc1nc2ccccc2[nH]1 | inactive: 73% |
| CC(C)OC(=O)CSc1nnc(CNc2ccc(F)cc2)n1C1CCCCC1 | inactive: 108% |
| Cc1ccccc1CNC(=O)c1ccc(CN2CC(=O)N3CCCCC3C2=O)cc1 (stereo not drawn) | inactive: 120% |
| CCc1nnc2c3ccccc3nc(N3CCN(c4cc(C)ccc4C)CC3)n12 | inactive: 102% |
| N#Cc1ccc(NC(=O)c2nc3ncccn3n2)cc1 | inactive: 106% |
| COc1ccc(N2CCN(S(=O)(=O)CCNC(=O)c3c(F)cccc3Cl)CC2)cc1 | inactive: 80% |
| CC(=O)Nc1cc(C(=O)Nc2ccc3c(c2)N(C)C(=O)c2ccccc2S3)ccc1C | inactive: 71% |
| Cc1ccccc1CN1C(=O)c2ccccc2S(=O)c2ccc(C(=O)NCc3ccc4c(c3)OCO4)cc21 (stereo not drawn) | inactive: 87% |
| COc1cccc(CNC(=O)CCC(=O)N2CC(C)Sc3ccccc32)c1 (stereo not drawn) | inactive: 79% |
| COc1ccc(CNC(=O)C(=O)Nc2cc(Cl)ccc2OC)cc1 | inactive: 158% |
| Cc1ccc(S(=O)(=O)c2nnn3c2nc(N2CCC(C(N)=O)CC2)c2cc(Cl)ccc23)cc1C | inactive: 77% |
| Cc1ccc(NS(=O)(=O)c2c(C)nc3sc(C)cn3c2=O)c(C)c1 | inactive: 87% |
| COc1ccc2[nH]c(=O)c(CN(Cc3cccnc3)C(=O)Nc3ccccc3)cc2c1 | inactive: 93% |
| Cc1nc2c(c(C)nn2C(C)(C)C)c(C)c1CCC(=O)Nc1ccc(Br)cc1Br | inactive: 67% |
| CS(=O)(=O)N1CCC(C(=O)NCC2CCCO2)CC1 (stereo not drawn) | inactive: 107% |
| Cc1ccc(NC(=O)[C@@H](c2ccccc2)N2Cc3ccccc3C2=O)cc1F | inactive: 36% |

| Compound | survival |
| --- | --- |
| CCC(=O)Nc1cc2nn(-c3ccc(C)cc3)nc2cc1C | inactive: 73% |
| CCCc1nn2c(=O)cc(COC(=O)c3ccco3)nc2s1 | inactive: 73% |
| COc1ccc(CCNC(=O)Cn2c(=O)c3cccn3c3ccccc32)cc1OC | inactive: 85% |
| COc1cccc(-c2noc(C3CCCN(C(=O)Cc4ccccc4)C3)n2)c1 (stereo not drawn) | inactive: 113% |
| CCCCOc1ccccc1C1CC(=O)Nc2cc(OC)c(OC)cc21 (stereo not drawn) | inactive: 80% |
| CC(=O)Nc1c(C)nn(-c2ccccc2)c1N1CCC(C(=O)Nc2cccc(C(F)(F)F)c2)CC1 | inactive: 64% |
| CCOC(=O)Cn1c(=O)n(CC2CCCO2)c2nc(-c3ccc(CC)cc3)nc(C(N)=O)c21 (stereo not drawn) | inactive: 81% |
| O=C(CSc1ncc2c(n1)-c1ccc(Cl)cc1N(Cc1ccccc1)S2(=O)=O)Nc1ccccc1C(F)(F)F | inactive: 82% |
| Cc1c(C(=O)NCc2ccc(F)cc2)sc2nc(-c3ccc(F)cc3)cn12 | inactive: 74% |
| CC1(C)Cc2nc(N)c(C#N)cc2CO1 | inactive: 109% |
| CCOc1ccc(NC(=O)CN2CCSc3ccc(S(=O)(=O)N4CCCC4)cc32)cc1 | inactive: 67% |
| CCn1cc(S(=O)(=O)c2ccc(C)cc2C)c(=O)c2cc(F)c(N3CCCCC3)cc21 | inactive: 77% |
| COC(=O)c1c(NC(=O)/C=C/c2ccc(OC)c(OC)c2)sc2c1CCC2 | inactive: 76% |
| Cc1cc(C)cc(N(CC(=O)NCc2ccccc2Cl)S(=O)(=O)c2c(C)[nH]c(=O)[nH]c2=O)c1 | inactive: 132% |
| Cc1noc(Cn2c(=O)c3ccccc3n(CC(=O)Nc3ccc(C(C)C)cc3)c2=O)n1 | inactive: 115% |
| CN(C)C(=O)Cn1c(SCC(=O)NC2CCCCC2)nc2ccccc21 | inactive: 107% |
| CCN(CC)c1ccc(NC(=O)CN2C(=O)c3cccnc3Oc3ccc(Cl)cc32)c(C)c1 | inactive: 99% |
| COCCNC(=O)CSc1nnc2[nH]c(=O)cc(C)n12 | inactive: 66% |
| O=C(NCc1ccccc1)c1ccc2c(c1)nc1n2CCOC1 | inactive: 82% |
| CCN(CC)CCCNC(=O)CN1C(=O)COc2ccc(S(=O)(=O)N3CCC(C)CC3)cc21 | inactive: 79% |
| CC(Nc1oc(-c2ccc(COc3ccc(Cl)cc3)o2)nc1C#N)c1ccccc1 (stereo not drawn) | inactive: 93% |
| CCc1ccccc1NS(=O)(=O)c1cc(Br)cc2c1N(C(=O)C1CC1)CC2 | inactive: 69% |
